In PubChem BioAssay (NCATS):
The inconclusive results got no clear call from the source; some entries with a clear call stand among them for comparison. For some assays here: Potencies of inconclusive entries are left out as doubtful fits. For some assays here: A note “side channel” means that the fit belongs to a control or component signal, not to the main read-out. The source made the active and inactive calls. Unless noted, calls come from the whole dose curve; as a rule, active = well fitted curve in the direction sought with a large enough effect; inconclusive = small, poorly fitted or top-dose-only effect, or another doubt; inactive = no such curve, though single readings can be large; an effect the other way counts as inactive or inconclusive.

Experiments:
[1] = NFAT Signaling Pathway (AID 444; active = well fitted curve in either direction with a large enough effect, not every such curve was filed as active; inconclusive = small, poorly fitted or top-dose-only effect, or another doubt;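 note: carbachol stimulus at about its EC50 of 1 µM final; % is set by controls: 0 for no effect and ±100 for the full control effect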); details: Jurkat NFAT-bla M1, carbachol, beta-lactamase ratio, 5 h; at 7.69 µM (top of the series) unless noted
Method in brief: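 Read-out: CCF4 FRET ratio (460 nm/530 nm) after 1 h RT dye loading, used for %activity and AC50 from titration series. Cells: Jurkat NFAT-β-lactamase/M1 line, treated with compound plus 1 uM carbachol for 5 h, 37 °C.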

[2] = target: Mitogen-activated protein kinase 10 (Mus musculus) (UniProt Q61831); experiment: JNK3 AlphaScreen Assay (AID 530; active = well fitted curve in either direction with a large enough effect, not every such curve was filed as active; inconclusive = small, poorly fitted or top-dose-only effect, or another doubt;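 note: kinase came from lysate of stimulated human HepG2 cells; signal reports phosphorylation of biotinylated GST-cJun 1-79 at Ser73 with 10 µM ATP; potency is the fitted concentration of half-maximal effect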); details: JNK3 lysate, c-Jun phosphorylation; activity change, negative = inhibition: at 57.1 µM (top of the series)
Method in brief: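 Compound titrations were preincubated 15 minutes at room temperature with substrate, antibody and pre-activated JNK3-containing HepG2 lysate. Reactions were started with 10 uM ATP and stopped with EDTA-containing bead buffer for AlphaScreen detection.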

[3] = qHTS Assay for Identification of Small Molecule Agonists for Hypoxia Response Element Signaling Pathway (AID 914; active = well fitted activation curve with a large enough effect in the signal ratio, with a control signal flat, not every such curve was filed as active; inconclusive = small, poorly fitted or top-dose-only effect, or effect the other way, or a change in a side signal; the % refers to the signal ratio; note: potency is the fitted concentration of half-maximal effect); details: ME-180 HRE-bla reporter, beta-lactamase ratio, CoCl2, 17 h; activation: stronger effect = higher value
Method in brief: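 ME-180 cells carrying an HRE-driven beta-lactamase reporter were treated with compounds in a titration series plus an EC50 level of CoCl2 for 17 h at 37 degrees Celsius; CCF4 readout as the 460nm/530nm ratio gave AC50 values.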

[4] = qHTS Assay for Lipid Storage Modulators (AID 1519; calls by dose curve; note: potency is the fitted concentration of half-maximal effect); details: Drosophila S3 cells, BODIPY lipid droplet/cell ratio, laser cytometry, cells loaded with oleic acid; activity change, negative = inhibition: at 57.5 µM (top of the series) unless noted
Method in brief: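 Cells seeded at 5,000 per well were treated with compounds over a concentration series and loaded with oleic acid (400 uM, as added). Lipid droplet fluorescence (488 nm excitation, 500-530 nm channel) was read by laser-scanning cytometry and normalized to 20 uM Triacsin C.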

[5] = target: Rap guanine nucleotide exchange factor 3 (Homo sapiens) (UniProt O95398); experiment: Confirmatory qHTS for antagonist of cAMP-regulated guanine nucleotide exchange factor 3 (EPAC1) (AID 1645880); details: EPAC1 Rap1B-BODIPY-GDP exchange, fluorescence; activity, negative = inhibition: at 115 µM (top of the series); note: nearly all actives have a fitted effect of over 55% in size; note: potency is the fitted concentration of half-maximal effect;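 for activity, negative = inhibition: plate controls were DMSO only for no effect and full effect of the ATA control for full effect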
Method in brief: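 Nucleotide exchange uses 100 nM EPAC1, 250 nM RAP1B-BODIPY-GDP and 50 uM GDP, with compounds in a concentration-titration series. After 5 min at room temperature, fluorescence (480 nm ex/540 nm em) is read every 5 min for 30 min. Data are normalized to control ATA and DMSO.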

[6] = target: Rap guanine nucleotide exchange factor 4 (Homo sapiens) (UniProt Q8WZA2); experiment: Confirmatory qHTS for antagonist of cAMP-regulated guanine nucleotide exchange factor 4 (EPAC2) (AID 1645885); details: activity change, negative = inhibition: at 12.7 µM (top of the series) unless noted; note: nearly all actives have a fitted effect of over 25% in size; note: potency is the fitted concentration of half-maximal effect
[7] = target: DNA repair nuclease/redox regulator APEX1 (Homo sapiens) (UniProt P27695); experiment: qHTS Validation Assay for Inhibitors of the Human Apurinic/apyrimidinic Endonuclease 1 (APE1) (AID 1705;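 note: TAMRA fluorescence gain over two minutes as APE1 cuts a quenched THF abasic duplex; % is set by controls: 0 for no effect and ±100 for the full control effect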)
Method in brief: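 Fluorogenic double-stranded THF abasic-site substrate (5'-TAMRA/3'-BHQ-2), 50 nM final. Enzyme preincubated with compound 15 min at room temperature, then substrate added. Kinetic fluorescence (ex 525/em 598 nm) read three times at 60 s intervals; activity taken as third-minus-first read difference.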

[8] = target: Endonuclease 4 (Escherichia coli (strain K12)) (UniProt P0A6C1); experiment: Counterscreen for APE1 Inhibitors: qHTS Validation Assay for Inhibitors of Endonuclease IV (AID 1708); note: potency is the fitted concentration of half-maximal effect
Method in brief: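 qHTS concentration-response format; LOPAC1280 tested under APE1-screen conditions. 2 nM enzyme, 15 min compound preincubation at RT, then 50 nM TAMRA/BHQ-2 abasic substrate; kinetic fluorescence read, three reads at 60 s intervals.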

[9] = qHTS for differential inhibitors of proliferation of Plasmodium falciparum line 7G8 (AID 1815);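 note: potency is the fitted concentration of half-maximal effect; parasite growth measured after three days of incubation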
[10] = qHTS for differential inhibitors of proliferation of Plasmodium falciparum line W2 (AID 1883); details: Potency: Plasmodium falciparum W2 proliferation inhibition;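 note: potency is the fitted concentration of half-maximal effect; parasites grown with compound for 72 h before lysis and staining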
[11] = qHTS for differential inhibitors of proliferation of Plasmodium falciparum line HB3 (AID 1886); details: Potency: Plasmodium falciparum HB3 proliferation inhibition;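 note: parasites grown with compound for 72 h before SYBR Green readout; plate controls were vehicle for no effect and reference inhibitor for full effect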
[12] = qHTS Assay for Modulators of Human Peripheral Myelin Protein 22 (PMP22) Expression/Activity (AID 1967; active = well fitted curve in the direction sought with a large enough effect in the signal ratio; inconclusive = small, poorly fitted or top-dose-only effect, or effect the other way, or a change in a side signal; inactive = no such curve, though single readings can be large or run the other way; the % refers to the signal ratio; note: potency is the fitted concentration of half-maximal effect); details: Cell-based PMP22 reporter, dual-color luciferase ratio, mouse Pmp22 promoter in mouse Schwann cells; activity change (ratio): at 115 µM (top of the series), 0% = compound-free control cells
Method in brief: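 Mouse MSC80 Schwann cells carrying Pmp22 promoter–green click beetle luciferase plus EF-alpha–red luciferase control, dosed 24 h at 37 °C. Dual-filter luminescence, overlap-corrected; %Activity from green/red ratio normalised to untreated cells, concentration-response curves fitted.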

[13] = target: RecQ-like DNA helicase BLM (Homo sapiens) (UniProt P54132); experiment: qHTS Validation Assay for Inhibitors of Bloom's syndrome helicase (BLM) (AID 2364); note: potency is the fitted concentration of half-maximal effect
Method in brief: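 Forked 20-bp duplex substrate (200 nM, TAMRA/BHQ-2) plus 2 mM ATP added after 15 min compound preincubation with 50 nM enzyme, pH 8.0, poly(dI-dC) 2.5 ug/ml. Strand separation followed by fluorescence (525/598 nm) over 2 h, normalized to enzyme-free and DMSO controls.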

[14] = target: M-phase phosphoprotein 8 (Homo sapiens) (UniProt Q99549); experiment: qHTS Validation Assay for Inhibitors for MPP8 Chromodomain Interactions with Methylated Histone Tails (AID 488949); note: top concentration of the series differs between compounds; % is set by controls: 0 for no effect and ±100 for the full control effect; nearly all actives have a fitted effect of over 55% in size
Method in brief: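 MPP8 (50 nM) was pre-bound to 50 nM biotinylated H3(1-18)K9me3 peptide in PBS pH 7.4 with 0.01% Tween-20. Compounds were then added for 30 min at room temperature, and complex disruption was read by AlphaScreen with streptavidin donor and nickel-chelate acceptor beads.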

[15] = target: Cytochrome P450 1A2 (Homo sapiens) (UniProt P05177); experiment: p450-cyp1a2 (AID 410; calls by dose curve; note: potency is the fitted concentration of half-maximal effect)
Method in brief: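 Luminescent readout of luciferin formed from Luciferin-ME by human CYP1A2; data normalized against complete inhibition by 57 uM furafylline. Enzyme 20nM, substrate 100uM at Km, 100mM KPO4 buffer, 60 min reaction at room temperature.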

[16] = Stat Signaling Pathway (AID 446; active = well fitted curve in either direction with a large enough effect, not every such curve was filed as active; inconclusive = small, poorly fitted or top-dose-only effect, or another doubt;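 note: ME-180 cervical cancer cells given 40 pM IL-6 alongside compound; SIE-controlled beta-lactamase reporter measured as 460/530 nm FRET emission ratio; top concentration of the series differs between compounds; % is set by controls: 0 for no effect and ±100 for the full control effect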); details: ME-180 SIE beta-lactamase reporter, IL-6 stimulated, 5 h; at 7.69 µM (top of the series) unless noted
Method in brief: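 ME-180 cells carrying a SIE-driven beta-lactamase reporter are stimulated with 40 pM IL-6 for 5 h at 37C in the presence of compound. The 460/530 nm FRET substrate ratio is read after 2.5 h at RT. Data are normalised to 300 pM IL-6 and to 125 nM JAK inhibitor controls.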

[17] = target: Rap guanine nucleotide exchange factor 3 (Homo sapiens) (UniProt O95398); experiment: Confirmatory qHTS for agonist of cAMP-regulated guanine nucleotide exchange factor 3 (EPAC1) (AID 1645881); details: EPAC1 Rap1B BODIPY-GDP exchange fluorescence; activation: at 154 µM (top of the series), 100% = cAMP control response; note: potency is the fitted concentration of half-maximal effect; nearly all actives have a fitted effect of over 75% in size
[18] = target: Rap guanine nucleotide exchange factor 4 (Homo sapiens) (UniProt Q8WZA2); experiment: Confirmatory qHTS for agonist of cAMP-regulated guanine nucleotide exchange factor 4 (EPAC2) (AID 1645884); details: EPAC2 GEF activity, Rap1B-BODIPY-GDP fluorescence; activation: at 154 µM (top of the series), percent relative to cAMP agonist control;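 note: nucleotide exchange releases bodipy-GDP from Rap1 and this lowers its fluorescence; potency is the fitted concentration of half-maximal effect; nearly all actives have a fitted effect of over 65% in size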
[19] = AP1 Signaling Pathway (AID 357; active = well fitted curve in either direction with a large enough effect, not every such curve was filed as active; inconclusive = small, poorly fitted or top-dose-only effect, or another doubt;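 note: ME-180 reporter cells stimulated with EGF at its EC50 level; top concentration of the series differs between compounds; % is set by controls: 0 for no effect and ±100 for the full control effect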); details: ME-180 (cervical carcinoma) AP-1-bla reporter, EGF-induced, beta-lactamase ratio, 5 h; at 7.69 µM (top of the series) unless noted
Method in brief: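 A ratiometric CCF4 readout (405 nm excitation; 460 and 530 nm emission) quantified AP-1-driven beta-lactamase in ME-180 cells after 5 h with compound and EC50 EGF; AC50 values were derived for activators and inhibitors.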

[20] = target: 3',5'-cyclic-AMP phosphodiesterase 4B (Homo sapiens) (UniProt Q07343); experiment: qHTS Assay for Inhibitors of PDE-IV (AID 607; active = well fitted activation curve with a large enough effect in the main read-out, with a control signal flat, not every such curve was filed as active; inconclusive = small, poorly fitted or top-dose-only effect, or effect the other way, or a change in a side signal; note: potency is the fitted concentration of half-maximal effect; for activation (PDE inhibition): % of control where 0% means no effect); details: HEK293 ACTOne CNG channel cells, membrane potential fluorescence; activation (PDE inhibition): at 22.9 µM (top of the series)
Method in brief: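 HEK293 ACTOne cells with CNG channel (1000/well), endogenous PDE4; membrane potential dye, compounds up to 22.9 uM final. Fluorescence Ex 535/Em 590; RO 20-1724 (100 uM final) as reference.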

[21] = target: Ubiquitin carboxyl-terminal hydrolase 1 (Homo sapiens) (UniProt O94782); experiment: Inhibitors of USP1/UAF1: Pilot qHTS (AID 504865);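 note: rhodamine fluorescence freed from ubiquitin-rhodamine substrate followed over time; potency is the fitted concentration of half-maximal effect; nearly all actives have a fitted effect of over 35% in size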
Method in brief: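 USP1/UAF1 complex at 1 nM preincubated 15 min at room temperature with compound, then Ub-Rho substrate added at 150 nM final. Fluorescence (480/540 nm) read kinetically in 50 mM HEPES pH 7.8, 0.5 mM EDTA, 1 mM TCEP, 0.1 mg/ml BSA, 0.01% Tween-20.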

[22] = target: Cytochrome P450 3A4 (Homo sapiens) (UniProt P08684); experiment: qHTS Assay for Activators of Cytochrome P450 3A4 (AID 885); note: potency is the fitted concentration of half-maximal effect; nearly all actives have a fitted effect of over 65% in size
Method in brief: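 Human CYP3A4 (20 nM) with Luciferin-PPXE at 25 uM (its KM) in 200 mM KPO4; 10 min compound preincubation, then NADPH regeneration and 60 min reaction at RT. Luciferin read by luminescence; normalized to 57 uM ketoconazole full inhibition.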

[23] = target: Cytochrome P450 2C9 (Homo sapiens) (UniProt P11712); experiment: qHTS Assay for Inhibitors and Substrates of Cytochrome P450 2C9 (AID 883); note: potency is the fitted concentration of half-maximal effect; nearly all actives have a fitted effect of over 60% in size
Method in brief: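 Luminescent read-out of deoxyluciferin hydroxylation, normalized to 57uM sulphaphenazole (AC100). Reaction: 10nM enzyme, 100uM Luciferin-H (equal to KM), 25mM KPO4, 10 min compound preincubation, then 60 min with NADPH regeneration, both at 37C.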
Tags give direction and shape of the fitted curve or compound fluorescence and quenching.

UniProt O95398, sequence (O95398 whole entry, looked up): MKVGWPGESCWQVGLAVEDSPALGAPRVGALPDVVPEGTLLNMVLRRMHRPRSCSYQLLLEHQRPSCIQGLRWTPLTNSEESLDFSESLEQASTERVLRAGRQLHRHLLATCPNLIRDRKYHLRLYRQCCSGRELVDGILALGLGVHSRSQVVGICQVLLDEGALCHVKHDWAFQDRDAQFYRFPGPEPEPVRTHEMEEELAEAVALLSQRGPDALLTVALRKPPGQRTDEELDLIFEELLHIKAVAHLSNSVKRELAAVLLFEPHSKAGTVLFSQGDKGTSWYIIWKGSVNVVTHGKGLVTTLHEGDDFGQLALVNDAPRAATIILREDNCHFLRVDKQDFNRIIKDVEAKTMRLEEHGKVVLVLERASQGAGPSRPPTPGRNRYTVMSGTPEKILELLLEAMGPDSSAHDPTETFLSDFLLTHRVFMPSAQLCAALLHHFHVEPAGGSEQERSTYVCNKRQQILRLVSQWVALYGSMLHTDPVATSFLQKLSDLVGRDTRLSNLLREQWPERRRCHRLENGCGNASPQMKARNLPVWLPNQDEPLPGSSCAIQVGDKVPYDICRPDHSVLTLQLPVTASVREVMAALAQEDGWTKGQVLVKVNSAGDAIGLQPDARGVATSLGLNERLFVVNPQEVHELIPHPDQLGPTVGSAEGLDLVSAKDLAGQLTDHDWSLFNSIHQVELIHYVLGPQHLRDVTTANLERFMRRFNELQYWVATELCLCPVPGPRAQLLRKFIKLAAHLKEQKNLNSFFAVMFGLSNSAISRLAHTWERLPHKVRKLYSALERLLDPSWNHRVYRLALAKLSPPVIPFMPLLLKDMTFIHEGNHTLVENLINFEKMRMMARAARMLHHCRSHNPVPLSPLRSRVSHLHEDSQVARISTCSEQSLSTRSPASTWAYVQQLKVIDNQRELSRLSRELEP
UniProt Q8WZA2, sequence (Q8WZA2 whole entry, looked up): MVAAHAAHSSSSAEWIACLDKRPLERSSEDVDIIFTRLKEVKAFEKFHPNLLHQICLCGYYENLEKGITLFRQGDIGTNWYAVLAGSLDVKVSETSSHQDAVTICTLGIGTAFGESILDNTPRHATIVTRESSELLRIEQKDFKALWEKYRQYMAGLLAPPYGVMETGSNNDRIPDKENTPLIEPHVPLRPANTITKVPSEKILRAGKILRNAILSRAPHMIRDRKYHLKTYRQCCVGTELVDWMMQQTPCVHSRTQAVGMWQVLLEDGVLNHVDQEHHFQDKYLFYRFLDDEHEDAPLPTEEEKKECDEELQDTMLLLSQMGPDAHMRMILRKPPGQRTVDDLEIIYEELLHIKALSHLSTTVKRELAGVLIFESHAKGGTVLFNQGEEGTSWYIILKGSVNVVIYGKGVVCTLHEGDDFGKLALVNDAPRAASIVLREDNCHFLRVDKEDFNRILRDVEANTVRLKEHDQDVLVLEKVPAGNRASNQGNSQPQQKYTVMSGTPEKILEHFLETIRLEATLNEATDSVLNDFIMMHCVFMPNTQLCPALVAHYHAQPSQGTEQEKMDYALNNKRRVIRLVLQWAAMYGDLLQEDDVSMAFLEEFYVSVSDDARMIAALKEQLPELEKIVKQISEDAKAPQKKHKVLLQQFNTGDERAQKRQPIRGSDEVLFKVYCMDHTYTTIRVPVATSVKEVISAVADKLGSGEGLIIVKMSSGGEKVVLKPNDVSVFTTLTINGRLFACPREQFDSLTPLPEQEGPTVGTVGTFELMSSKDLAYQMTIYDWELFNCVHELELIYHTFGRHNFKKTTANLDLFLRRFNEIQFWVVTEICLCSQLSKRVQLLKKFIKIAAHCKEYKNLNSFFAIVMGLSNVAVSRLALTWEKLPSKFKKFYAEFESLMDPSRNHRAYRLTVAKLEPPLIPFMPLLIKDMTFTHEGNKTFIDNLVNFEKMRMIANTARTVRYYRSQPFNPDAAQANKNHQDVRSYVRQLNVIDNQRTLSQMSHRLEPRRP
UniProt P08684, sequence (P08684 whole entry, looked up): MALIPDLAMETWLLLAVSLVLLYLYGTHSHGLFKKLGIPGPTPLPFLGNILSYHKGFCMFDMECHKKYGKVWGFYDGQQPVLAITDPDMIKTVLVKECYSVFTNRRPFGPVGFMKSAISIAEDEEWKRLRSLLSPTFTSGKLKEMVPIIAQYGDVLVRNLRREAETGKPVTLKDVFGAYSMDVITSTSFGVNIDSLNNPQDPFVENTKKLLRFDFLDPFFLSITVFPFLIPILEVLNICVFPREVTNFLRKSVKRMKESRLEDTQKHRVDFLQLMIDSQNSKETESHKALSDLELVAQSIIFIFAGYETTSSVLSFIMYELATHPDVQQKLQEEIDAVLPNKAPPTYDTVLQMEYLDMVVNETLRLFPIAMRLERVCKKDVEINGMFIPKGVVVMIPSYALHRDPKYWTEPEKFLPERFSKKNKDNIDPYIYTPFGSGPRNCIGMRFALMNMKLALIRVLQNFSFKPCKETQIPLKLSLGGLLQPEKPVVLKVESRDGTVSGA
UniProt Q07343, sequence (Q07343 whole entry, looked up): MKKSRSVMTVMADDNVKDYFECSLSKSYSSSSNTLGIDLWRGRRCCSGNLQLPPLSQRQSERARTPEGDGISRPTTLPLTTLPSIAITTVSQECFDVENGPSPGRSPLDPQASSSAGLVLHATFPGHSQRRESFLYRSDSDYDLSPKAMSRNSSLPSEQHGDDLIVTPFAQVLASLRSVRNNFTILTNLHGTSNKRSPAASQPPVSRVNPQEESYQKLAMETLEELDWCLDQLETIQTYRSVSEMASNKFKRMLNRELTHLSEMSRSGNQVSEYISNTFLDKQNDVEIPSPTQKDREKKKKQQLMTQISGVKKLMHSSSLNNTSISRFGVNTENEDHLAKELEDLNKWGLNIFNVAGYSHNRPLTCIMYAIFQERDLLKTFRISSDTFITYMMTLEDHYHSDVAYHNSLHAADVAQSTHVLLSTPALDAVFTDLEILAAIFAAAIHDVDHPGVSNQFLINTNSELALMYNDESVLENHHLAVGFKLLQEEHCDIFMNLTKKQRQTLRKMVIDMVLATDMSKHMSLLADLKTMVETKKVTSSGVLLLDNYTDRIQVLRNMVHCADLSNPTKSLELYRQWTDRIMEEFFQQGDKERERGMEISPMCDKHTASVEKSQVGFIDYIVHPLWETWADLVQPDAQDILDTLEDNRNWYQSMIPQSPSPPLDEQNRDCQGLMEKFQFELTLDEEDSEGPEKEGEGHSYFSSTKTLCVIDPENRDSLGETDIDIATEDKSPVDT
UniProt P05177, sequence (P05177 whole entry, looked up): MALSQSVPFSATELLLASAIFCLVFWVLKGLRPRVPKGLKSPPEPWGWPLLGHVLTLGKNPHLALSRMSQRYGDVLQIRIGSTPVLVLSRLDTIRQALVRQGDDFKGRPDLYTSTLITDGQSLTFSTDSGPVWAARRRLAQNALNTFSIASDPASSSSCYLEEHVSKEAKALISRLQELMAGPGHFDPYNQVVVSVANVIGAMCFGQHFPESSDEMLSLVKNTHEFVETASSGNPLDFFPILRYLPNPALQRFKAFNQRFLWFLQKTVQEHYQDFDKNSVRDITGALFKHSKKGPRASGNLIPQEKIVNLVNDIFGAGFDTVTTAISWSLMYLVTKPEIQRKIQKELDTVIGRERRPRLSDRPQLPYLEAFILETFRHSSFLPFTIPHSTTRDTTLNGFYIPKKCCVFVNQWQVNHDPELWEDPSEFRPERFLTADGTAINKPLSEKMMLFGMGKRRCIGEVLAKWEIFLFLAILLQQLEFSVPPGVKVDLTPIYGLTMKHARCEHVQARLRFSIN
UniProt Q99549, sequence (Q99549 whole entry, looked up): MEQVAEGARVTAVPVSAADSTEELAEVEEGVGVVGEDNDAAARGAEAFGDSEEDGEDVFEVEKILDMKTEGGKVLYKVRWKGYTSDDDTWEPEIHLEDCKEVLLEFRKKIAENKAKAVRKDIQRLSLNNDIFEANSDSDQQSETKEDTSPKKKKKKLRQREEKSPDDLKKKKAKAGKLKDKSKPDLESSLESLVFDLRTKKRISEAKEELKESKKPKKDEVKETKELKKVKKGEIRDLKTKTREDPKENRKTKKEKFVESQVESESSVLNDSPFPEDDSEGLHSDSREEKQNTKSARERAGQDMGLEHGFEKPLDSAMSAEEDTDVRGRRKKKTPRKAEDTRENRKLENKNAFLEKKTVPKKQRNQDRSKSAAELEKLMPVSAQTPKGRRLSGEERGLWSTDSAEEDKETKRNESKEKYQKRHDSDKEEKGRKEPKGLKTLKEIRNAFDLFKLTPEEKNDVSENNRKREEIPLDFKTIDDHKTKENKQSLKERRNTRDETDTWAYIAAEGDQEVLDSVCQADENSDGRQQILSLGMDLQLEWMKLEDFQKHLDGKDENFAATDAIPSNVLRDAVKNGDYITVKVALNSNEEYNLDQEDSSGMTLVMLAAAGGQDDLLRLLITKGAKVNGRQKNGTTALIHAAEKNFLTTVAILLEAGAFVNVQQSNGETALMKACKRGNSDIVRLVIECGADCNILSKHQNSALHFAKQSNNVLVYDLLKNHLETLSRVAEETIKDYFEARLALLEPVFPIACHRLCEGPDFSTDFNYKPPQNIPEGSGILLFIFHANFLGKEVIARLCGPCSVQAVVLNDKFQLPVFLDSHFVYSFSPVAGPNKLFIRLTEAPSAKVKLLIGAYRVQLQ
UniProt P27695, sequence (P27695 whole entry, looked up): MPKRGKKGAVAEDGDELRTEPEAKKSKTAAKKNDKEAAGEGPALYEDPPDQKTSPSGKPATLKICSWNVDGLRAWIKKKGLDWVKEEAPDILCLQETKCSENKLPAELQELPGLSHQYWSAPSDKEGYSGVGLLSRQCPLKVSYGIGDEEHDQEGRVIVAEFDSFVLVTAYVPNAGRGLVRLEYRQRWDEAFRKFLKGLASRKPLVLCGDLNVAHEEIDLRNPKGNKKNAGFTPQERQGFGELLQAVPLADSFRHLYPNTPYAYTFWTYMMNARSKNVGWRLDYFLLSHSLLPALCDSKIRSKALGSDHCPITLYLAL

COCC(=O)N1CCC2(CC1)CN(c1ccccn1)C2
activity change, negative = inhibition [1]: inactive: 1.7%
Potency [2]: inconclusive [activator, full curve, poor fit]
Potency [3]: inconclusive [inhibitor, full curve]
Potency [4]: inactive
Potency [5]: inactive
Potency [6]: inactive

CNC(=O)[C@H]1O[C@@H](n2cnc3c(NCc4ccc(N)cc4)ncnc32)[C@H](O)[C@H]1O
activity change, negative = inhibition [4]: inconclusive: 1.02%
Potency [7]: inactive
Potency [8]: inconclusive [inhibitor, partial curve, poor fit]
Potency [9]: inconclusive [inhibitor, partial curve, poor fit]
Potency [10]: inconclusive [inhibitor, partial curve]
Potency [11]: inactive
Potency [12]: inconclusive [cytotoxic, single point]
Potency [13]: inconclusive [inhibitor, full curve, poor fit]
Potency [14]: inactive

O=c1c(-c2ccc(F)cc2)nc2cnc(Nc3ccccc3)nc2n1Cc1cccs1
Potency [15]: active: 2 µM
activity, negative = inhibition [16]: inconclusive: 30.9% [activator]
Potency [3]: inconclusive [fluorescent, side channel, single point]
activity change, negative = inhibition [4]: inconclusive: -8.51%
Potency [17]: inconclusive [activator, partial curve, poor fit]
Potency [18]: inconclusive [activator, partial curve]

COc1cccc(-c2nccc(NCc3cccs3)n2)c1
activity change, negative = inhibition [19]: inactive: -9.78%
Potency [20]: inactive
activity change, negative = inhibition [4]: inconclusive: 7.03%
Potency [21]: inconclusive [inhibitor, single point]
Potency [5]: inconclusive [inhibitor, partial curve, poor fit]

Cn1cccc1C(=O)N1CCC2(CC1)CN(c1cccc(-c3ccccc3)c1)C2
Potency [2]: inconclusive [inhibitor, partial curve]
Potency [22]: inconclusive [activator, full curve, poor fit]
Potency [3]: inconclusive [inhibitor, single point]
Potency [4]: inconclusive [inhibitor, single point]
Potency [5]: inactive
Potency [6]: inconclusive [inhibitor, partial curve]

COc1cccc(Cn2c(=O)c(-c3cccs3)nc3cnc(Nc4cccc(OC)c4)nc32)c1
activity change, negative = inhibition [19]: inactive: -17.2%
Potency [15]: active: 2.51 µM
Potency [20]: inconclusive [activator, partial curve]
Potency [23]: inconclusive [inhibitor, full curve]
Potency [3]: inconclusive [activator, partial curve]
activity change, negative = inhibition [4]: inconclusive: -17.8%
Potency [17]: inconclusive [activator, partial curve]
Potency [18]: inconclusive [activator, partial curve, poor fit]

COC(=O)N1CCC2(CC1)CCN(c1cccc(-c3ccccc3)c1)CC2
activity change, negative = inhibition [1]: inconclusive: -34.8% [inhibitor]
Potency [22]: inconclusive [activator, full curve]
activity change, negative = inhibition [4]: inconclusive: 1.03%
Potency [6]: inconclusive [inhibitor, partial curve]
